Reference: the supplement of paper PMC12230231
± gives the standard deviation of the averaged measurements. Restriction of a single-cycle SIVsab GFP reporter by TRIM5α v1-loop variants in CRFK cells. Human variants: read share among cells still uninfected after two challenges over input, higher = gained restriction. Rhesus variants: share among infected cells over input, higher = lost restriction. Reporter dose not given per row. No active / inactive call per row; the paper calls a change when both replicates lie above its controls (mean + 2 SD of stop or wild-type variants, or the top frameshift score). Residues outside the varied loop are taken from Swiss-Prot. The paper reads the human single-substitution scores as noise; they and the rhesus combinations repeat poorly (rank correlation 0.3 to 0.4), indel scores repeat only for the top variants, rhesus substitutions well (0.9).

These sequences were tested on SIVsab (simian immunodeficiency virus of sabaeus monkeys), single-cycle GFP reporter, in CRFK cells (assay: enrichment among infected cells over input (fold); higher = weaker restriction). Settings: library: human / rhesus combinations.
Procedure: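 Pools of CRFK cells expressing variants of the TRIM5α v1 loop were challenged with the single-cycle reporter, sorted by GFP and sequenced; mean of two replicates.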
With “MASGILLNVKEEVTCPICLELLTEPLSLHCGHSFCQACITANHKKSMLYKEGERSCPVCRISYQPENIQPNRHVANIVEKLREVKLSPEEGQKVDHCARHGEKLLLFCQEDSKVICWLCERSQEHRGHHTFLMEEVAQEYHVKLQTALEMLRQKQQEAEKLEADIREEKASWKIQIDYDKTNVSADFEQLREILDWEESNELQNLEKEEEDILKSLTKSETEMVQQTQYMRELISELEHRLQGSMMDLLQGVDGIIKRIENMTLKKPKTFHKNQRRVFRAPDLKGMLDMFRELTDARRYWVDVTLAPNNISHAVIAEDKRQVSSRNPQIMYGARGTLFTFPSLVNFNYCTGVLGSQSITSGKHYWEVDVSKKSAWILGVCAGFQSDAMYNIEQNENYQPKYGYWVIGLQEGVKYSVFQDGSSHTPFAPFIVPLSVIICPDRVGVFVDYEACTVSFFNITNHGFLIYKFSQCSFSKPVFPYLNPRKCTVPMTLCSPSS [rhesus TRIM5α, 332-344 = GARGTLFTFPSLV]” the enrichment was 0.2139 ± 0.00084.
Work on “MASGILLNVKEEVTCPICLELLTEPLSLHCGHSFCQACITANHKKSMLYKEGERSCPVCRISYQPENIQPNRHVANIVEKLREVKLSPEEGQKVDHCARHGEKLLLFCQEDSKVICWLCERSQEHRGHHTFLMEEVAQEYHVKLQTALEMLRQKQQEAEKLEADIREEKASWKIQIDYDKTNVSADFEQLREILDWEESNELQNLEKEEEDILKSLTKSETEMVQQTQYMRELISELEHRLQGSMMDLLQGVDGIIKRIENMTLKKPKTFHKNQRRVFRAPDLKGMLDMFRELTDARRYWVDVTLAPNNISHAVIAEDKRQVSSRNPQIMYGARGTLYTFPSFTNFNYCTGVLGSQSITSGKHYWEVDVSKKSAWILGVCAGFQSDAMYNIEQNENYQPKYGYWVIGLQEGVKYSVFQDGSSHTPFAPFIVPLSVIICPDRVGVFVDYEACTVSFFNITNHGFLIYKFSQCSFSKPVFPYLNPRKCTVPMTLCSPSS [rhesus TRIM5α, 332-344 = GARGTLYTFPSFT]” yielded an enrichment of 0.97 ± 0.48.
With “MASGILLNVKEEVTCPICLELLTEPLSLHCGHSFCQACITANHKKSMLYKEGERSCPVCRISYQPENIQPNRHVANIVEKLREVKLSPEEGQKVDHCARHGEKLLLFCQEDSKVICWLCERSQEHRGHHTFLMEEVAQEYHVKLQTALEMLRQKQQEAEKLEADIREEKASWKIQIDYDKTNVSADFEQLREILDWEESNELQNLEKEEEDILKSLTKSETEMVQQTQYMRELISELEHRLQGSMMDLLQGVDGIIKRIENMTLKKPKTFHKNQRRVFRAPDLKGMLDMFRELTDARRYWVDVTLAPNNISHAVIAEDKRQVSSRNPQIMYQARGTLYQSLVNFNYCTGVLGSQSITSGKHYWEVDVSKKSAWILGVCAGFQSDAMYNIEQNENYQPKYGYWVIGLQEGVKYSVFQDGSSHTPFAPFIVPLSVIICPDRVGVFVDYEACTVSFFNITNHGFLIYKFSQCSFSKPVFPYLNPRKCTVPMTLCSPSS [rhesus TRIM5α, 332-344 = QARGTLYQSLV]” the enrichment was 0.859 ± 0.28.
For “MASGILLNVKEEVTCPICLELLTEPLSLHCGHSFCQACITANHKKSMLYKEGERSCPVCRISYQPENIQPNRHVANIVEKLREVKLSPEEGQKVDHCARHGEKLLLFCQEDSKVICWLCERSQEHRGHHTFLMEEVAQEYHVKLQTALEMLRQKQQEAEKLEADIREEKASWKIQIDYDKTNVSADFEQLREILDWEESNELQNLEKEEEDILKSLTKSETEMVQQTQYMRELISELEHRLQGSMMDLLQGVDGIIKRIENMTLKKPKTFHKNQRRVFRAPDLKGMLDMFRELTDARRYWVDVTLAPNNISHAVIAEDKRQVSSRNPQIMYQARGTLYTFPSFTNFNYCTGVLGSQSITSGKHYWEVDVSKKSAWILGVCAGFQSDAMYNIEQNENYQPKYGYWVIGLQEGVKYSVFQDGSSHTPFAPFIVPLSVIICPDRVGVFVDYEACTVSFFNITNHGFLIYKFSQCSFSKPVFPYLNPRKCTVPMTLCSPSS [rhesus TRIM5α, 332-344 = QARGTLYTFPSFT]”, the enrichment was 1.55 ± 0.9.
